Test results as given in paper PMC5107933.
No constants are given. Whether binding was seen depends on the method and setting. In cells and extracts the contact can be indirect. Some entries that bind do so weakly or less than the wild type. For some of these results: Sequences can lack the tags named with a protein.

Protein sequences, listed by entry. Tags and fused reporters are not part of them. Residues count along the entry.
UniProt G1TJL6: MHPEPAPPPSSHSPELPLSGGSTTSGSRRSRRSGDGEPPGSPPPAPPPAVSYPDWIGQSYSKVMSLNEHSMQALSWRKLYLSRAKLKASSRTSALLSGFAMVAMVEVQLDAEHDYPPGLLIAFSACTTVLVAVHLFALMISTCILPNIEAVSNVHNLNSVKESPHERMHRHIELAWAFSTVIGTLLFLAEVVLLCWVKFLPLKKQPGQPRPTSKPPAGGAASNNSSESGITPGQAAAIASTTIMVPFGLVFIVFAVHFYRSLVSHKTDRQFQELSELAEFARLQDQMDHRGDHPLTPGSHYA
UniProt Q8BWG9: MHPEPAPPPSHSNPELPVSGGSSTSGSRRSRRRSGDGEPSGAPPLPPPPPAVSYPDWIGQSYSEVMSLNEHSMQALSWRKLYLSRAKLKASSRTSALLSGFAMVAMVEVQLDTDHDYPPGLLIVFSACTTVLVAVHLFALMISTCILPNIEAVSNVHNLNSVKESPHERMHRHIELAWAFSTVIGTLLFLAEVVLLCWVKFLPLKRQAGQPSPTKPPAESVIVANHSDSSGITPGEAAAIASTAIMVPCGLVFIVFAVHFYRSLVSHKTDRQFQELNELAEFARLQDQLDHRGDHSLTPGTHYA
UniProt P70302, residues 23-685: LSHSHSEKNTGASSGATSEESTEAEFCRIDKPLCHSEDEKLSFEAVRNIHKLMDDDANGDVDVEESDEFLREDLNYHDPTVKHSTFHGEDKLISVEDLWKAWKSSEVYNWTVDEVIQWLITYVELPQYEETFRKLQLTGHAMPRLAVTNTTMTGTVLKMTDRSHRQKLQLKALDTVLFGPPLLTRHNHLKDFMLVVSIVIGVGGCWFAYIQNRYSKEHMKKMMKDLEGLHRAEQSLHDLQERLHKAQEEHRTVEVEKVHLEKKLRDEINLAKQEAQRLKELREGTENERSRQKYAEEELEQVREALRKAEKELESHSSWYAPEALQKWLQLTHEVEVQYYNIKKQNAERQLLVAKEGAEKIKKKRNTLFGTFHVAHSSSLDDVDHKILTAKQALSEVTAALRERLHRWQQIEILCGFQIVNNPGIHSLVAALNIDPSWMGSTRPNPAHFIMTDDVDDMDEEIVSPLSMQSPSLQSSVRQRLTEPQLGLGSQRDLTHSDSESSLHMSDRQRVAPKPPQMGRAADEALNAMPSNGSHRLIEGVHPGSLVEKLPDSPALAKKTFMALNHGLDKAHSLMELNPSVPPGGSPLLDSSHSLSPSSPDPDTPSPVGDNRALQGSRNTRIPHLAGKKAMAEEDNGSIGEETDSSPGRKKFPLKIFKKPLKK

Experiments:
[1] = biological target: T1, GST-full-length MG53 (mouse) (UniProt Q1XH17); experiment: pull-down; GST-fused MG53 proteins immobilized on GST beads, incubated with the triad vesicle sample from rabbit skeletal muscle; immunoblot with anti-Orai1 or anti-GST; only the target purified
T1 sequence: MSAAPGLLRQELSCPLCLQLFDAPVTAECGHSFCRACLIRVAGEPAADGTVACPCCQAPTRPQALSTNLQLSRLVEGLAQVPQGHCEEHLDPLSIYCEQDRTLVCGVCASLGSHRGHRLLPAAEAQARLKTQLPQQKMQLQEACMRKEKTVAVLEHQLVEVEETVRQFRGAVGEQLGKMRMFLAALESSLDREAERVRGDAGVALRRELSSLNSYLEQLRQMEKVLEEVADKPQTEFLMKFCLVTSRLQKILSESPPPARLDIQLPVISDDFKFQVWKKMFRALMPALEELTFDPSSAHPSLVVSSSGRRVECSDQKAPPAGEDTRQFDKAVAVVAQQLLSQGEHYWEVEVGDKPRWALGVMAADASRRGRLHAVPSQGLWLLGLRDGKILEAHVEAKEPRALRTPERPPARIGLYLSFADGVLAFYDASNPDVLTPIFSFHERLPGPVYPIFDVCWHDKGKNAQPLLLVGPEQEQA

[2] = biological target: T2, Mitsugumin 53 (MG53), endogenous in rabbit skeletal muscle triad vesicles (rabbit (endogenous in skeletal muscle triad vesicles)) (UniProt Q1XH18); experiment: co-IP; solubilized triad vesicle sample from rabbit skeletal muscle (30 μg of total proteins); immunoprecipitation with anti-Orai1 or anti-MG53 antibody; immunoblot with various antibodies; reaction without antibody as negative control
T2 sequence: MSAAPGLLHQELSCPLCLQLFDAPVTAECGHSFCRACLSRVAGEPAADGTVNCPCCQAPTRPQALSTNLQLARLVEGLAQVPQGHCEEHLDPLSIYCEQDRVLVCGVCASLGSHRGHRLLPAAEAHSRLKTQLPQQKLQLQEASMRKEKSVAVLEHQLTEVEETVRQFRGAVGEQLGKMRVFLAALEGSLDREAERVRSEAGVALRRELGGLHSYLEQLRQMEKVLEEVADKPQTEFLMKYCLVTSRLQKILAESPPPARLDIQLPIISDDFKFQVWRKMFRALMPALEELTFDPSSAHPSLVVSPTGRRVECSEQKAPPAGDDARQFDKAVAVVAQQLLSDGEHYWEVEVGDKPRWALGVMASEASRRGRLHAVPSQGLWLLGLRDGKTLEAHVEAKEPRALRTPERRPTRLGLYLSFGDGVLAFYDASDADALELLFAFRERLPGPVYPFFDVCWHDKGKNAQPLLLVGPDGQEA

HA-MG53 (mitsugumin 53) = biological target: T3, HA-MG53 (mitsugumin 53) (UniProt Q1XH17); experiment: co-IP; HEK293 cells co-transfected with HA-MG53 and a myc-tagged protein; lysed with RIPA buffer (150 mM NaCl, 5 mM EDTA, 1% Nonidet P-40, 20 mM Tris-HCl, pH 7.5); 20 μg of total protein incubated with anti-HA antibody overnight; immunoblot with anti-HA or anti-myc
T3 sequence: T1 sequence

Row | Substance | binding [1] | binding [2] | binding (HA-MG53 (mitsugumin 53))
1 | Orai1, endogenous in rabbit skeletal muscle triad vesicles (from UniProt G1TJL6 1-302) | binds | binds | 
2 | Orai1-myc (from UniProt Q8BWG9 1-304) |  |  | binds
3 | STIM1-myc (from UniProt P70302 23-685) |  |  | no binding
